Laboratory results as given in publication PMC12136788.
This is one part of the list.

T1: UNK ZnF1-6 (called full-length) (human, UniProt Q9C0B0 30-357)
T1 sequence: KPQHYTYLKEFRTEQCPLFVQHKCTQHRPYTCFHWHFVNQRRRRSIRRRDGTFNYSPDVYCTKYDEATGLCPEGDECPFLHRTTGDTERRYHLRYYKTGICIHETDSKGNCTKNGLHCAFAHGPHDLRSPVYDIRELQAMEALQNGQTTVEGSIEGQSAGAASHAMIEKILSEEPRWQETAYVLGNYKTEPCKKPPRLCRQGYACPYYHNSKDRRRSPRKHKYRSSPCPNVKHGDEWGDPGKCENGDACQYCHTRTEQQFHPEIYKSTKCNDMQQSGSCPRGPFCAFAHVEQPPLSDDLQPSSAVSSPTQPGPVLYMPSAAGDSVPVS

B1: ENSG00000089050:stop:overlap|stop_codon|ENSG00000089050|stop_codon|NA|stop_codon (ssRNA)
RNA: GGGAGUUCUACAGUCCGACGAUCAGAACACAGAGUUUCAUGAACUGAUUACUGUUGUAAAGUCUUUGCUGAAAGUACCAGCAUAGACUGUAUGAUUUCUGCUAUUUUGCAUCCCAAUAUAGGAGUAGAAUAAUAUCUACUAUCCAACAGAGGAUUGAGCAUCA
B2: chr19:45712844:45712945:-|CDS|ENSG00000177051|unk|FALSE|bound_elsewhere (ssRNA)
RNA: GGGAGUUCUACAGUCCGACGAUCGGAACAGCGGGCAGCCCUGGCCCUGCAGAGCUACCCACGACCGACCACCCCAGCGCCUGUAGUCUUUGUGUCCGCCGAGCAAGGUGGACCGGCCAAGGGGGUGGGAUCUGAACGGCGGUCCAACAGAGGAUUGAGCAUCA
B3: chr12:104348774:104348848:+|3pUTR|ENSG00000198431|msi1_unk|total|mutant (ssRNA)
RNA: GGGAGUUCUACAGUCCGACGAUCCGUUGUCAAGUUUUCCCGGGUUGAAUUUUUUUCUUUUUUCUCCAUGGUGUUAAUGAUAUCCGAGAUGAAAAACGUCCGCAGUUGAUUUUUGUCCAAAAGCAAGUCAUGGCCCGAGUAUCCCAACAGAGGAUUGAGCAUCA
B4: chr1:186359875:186359976:-|CDS|ENSG00000047410|msi1_unk|FALSE|overlapping (ssRNA)
RNA: GGGAGUUCUACAGUCCGACGAUCGGAAACUCAGGAUCAGUUGCUUUUGGAGAAACUAGAGAACAAAAGAAUUAAUAAGUACCUAGAUGAAAUAGUGAAAGAAGUGGAAGCCAAAGCACCAAUUUUGAAACGCCAGCGUGAGGACAACAGAGGAUUGAGCAUCA
B5: chrX:30828625:30828726:-|3pUTR|ENSG00000157625|msi1|FALSE|bound_elsewhere (ssRNA)
RNA: GGGAGUUCUACAGUCCGACGAUCUUCUUGUUUCUUGUAAGAGGUUUCUUUAAAAUGACUAGUUUGAUGUAUCUGGUAACAUAUAGGCCUGACUAUACAUUUUACAUUAUUUCGCUAUUUUGUAAACUGGGAUUUUAGAAAGCACAACAGAGGAUUGAGCAUCA
B6: chr6:157944353:157944454:+|3pUTR|ENSG00000130340|unk|FALSE|unique (ssRNA)
RNA: GGGAGUUCUACAGUCCGACGAUCAGUAAUUCUCCCCACUUGAUUUUUCUUCUAUAAAAUCCCAUAGAACAAUGUUUAUGCUAUAGCCAUUUAAUAUAUGUACAAAUUGUAAAGAAUAUGUAUAAAUGUUUUACACGAAUGUAACAACAGAGGAUUGAGCAUCA
B7: chr1:226632358:226632459:-|3pUTR|ENSG00000143772|msi1|total|mutant (ssRNA)
RNA: GGGAGUUCUACAGUCCGACGAUCUCAAGCCAUUUUGCCACUCGCUUCCCUGCCAUCUGGCCCUUCCCUUUGUCUCAGUGGGACCGAUGGAUUGUGAAAUGGAAUCUCCCAGAACCCCUGCCCUGGCAGCCUGGAAGACCGUGCCAACAGAGGAUUGAGCAUCA
B8: ENSG00000070961:be:win_1751|CDS|ENSG00000070961|bound_else_gene|NA|bound_elsewhere_windowed (ssRNA)
RNA: GGGAGUUCUACAGUCCGACGAUCCCAUGAGUACUGUCCUGAAAAAUUCAGAUGGAAGUUAUCGAAUAUUCAGCAAGGGUGCAUCUGAGAUAAUUCUGAAAAAGUGUUUCAAAAUCUUGAGUGCUAAUGGUGAGGCAAAAGUAUCAACAGAGGAUUGAGCAUCA
B9: chrX:72139229:72139330:+|CDS|ENSG00000204131|unk|total|mutant (ssRNA)
RNA: GGGAGUUCUACAGUCCGACGAUCUCCCUCCGUGCCCAGCAAGAGGCCCAGCACAGAAGGCAGAGGUCCAAGAGUAUCUCACUCCGGAAGGCCAAAAAGAAGCCUUCCCCACCCACACGCAGUGUCUCACUGGUCAAAGAUGAGCAACAGAGGAUUGAGCAUCA
B10: chr17:41586309:41586834:-|CDS|ENSG00000186847|control|control|control (ssRNA)
RNA: GGGAGUUCUACAGUCCGACGAUCGCCUGCGGGCUGGGGGGCGGCUAUGGCGGUGGCUUCAGCAGCAGCAGCAGCAGCUUUGGUAGUGGCUUUGGGGGAGGAUAUGGUGGUGGCCUUGGUGCUGGCUUGGGUGGUGGCUUUGGUCAACAGAGGAUUGAGCAUCA
B11: chr14:53951422:53951790:-|three_prime_utr|ENSG00000125378|control|control|control (ssRNA)
RNA: GGGAGUUCUACAGUCCGACGAUCUUUGGAGACAGAGGGGGAGGUGUUCAGGGGAAGGGGAAUGACAGCACUCAGACGUGGGCUAGCCCCAGCGGUGUGUUUUUGCUAUAUCAAAGCCUUUUCUGCUAGGUUUUCUGCCCGUUUCAACAGAGGAUUGAGCAUCA
B12: ENSG00000198589:be:win_8101|CDS|ENSG00000198589|bound_else_gene|NA|bound_elsewhere_windowed (ssRNA)
RNA: GGGAGUUCUACAGUCCGACGAUCGUGUUGAGUGGUUCACAAGAAGGACCAUGUCUCAUACAUUCCAUGAAUGGAGACUUGUUGAGGACCUUGGAGGGUCCUGAAAACUGCCUGAAACCAAAACUCAUUCAGGCUUCAAGAGAGCAACAGAGGAUUGAGCAUCA
B13: chr11:61866713:61866887:+|3pUTR|ENSG00000134824|msi1|FALSE|unique (ssRNA)
RNA: GGGAGUUCUACAGUCCGACGAUCCUCUCCUGUCUGAACCUGCCCUUACUGUGUUUAACCUGUUGCUCCAGGAUGCAUUCUGAUAGGAGGGGGCGGCAGGGCUGGGCCUUGUGACAAUCUGCCUUUCACCACAUGGCCUUGCCUCAACAGAGGAUUGAGCAUCA
B14: chr1:205790044:205790145:-|3pUTR|ENSG00000133065|msi1|FALSE|bound_elsewhere (ssRNA)
RNA: GGGAGUUCUACAGUCCGACGAUCAGAUUCUUCUGCCUCUUUCUCCUUUCCAGACCCCUACUCUGUGCAGUGCUGACCACAGCUAGAGCCACCGCCCCAUUGCUCAACCAGUAUUUAUUUCCCUAAACGACCCUUCCUCACAUUCAACAGAGGAUUGAGCAUCA

Target: T1, UNK ZnF1-6 (called full-length)
Assay: nsRBNS (natural sequence RNA bind-n-seq); RBNS binding buffer (assumed for nsRBNS): 25 mM Tris pH 7.5, 150 mM KCl, 3 mM MgCl2, 0.01% Triton X-100, 500 ug/ml BSA, 20 U/ml SUPERase-In, 4 C; UNK is unkempt and MSI1 is Musashi-1; names of the RNAs are library labels; protein concentration not given here; high values mean tight binding

Binder | binding signal [enrichment R]
B1 | 0.651
B2 | 0.6
B3 | 0.359
B4 | 4.28
B5 | 0.621
B6 | 2.42
B7 | 2.1
B8 | 0.298
B9 | 0.668
B10 | 1.36
B11 | 0.965
B12 | 0.394
B13 | 0.694
B14 | 1.07
